56 compounds from PMC4336329 (PLoS ONE, 2015) can be followed below.

In all, about 310,000 compounds went through this assay and about 14,000 (4.5%) showed an effect of 50% or more. The effect is printed as a negative number. Some of the results follow.
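Further: peak tail current of the secondary pulse compared with the same well before compound.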

In the assay the target is human ether-à-go-go-related gene (hERG) potassium channel (human, UniProt Q12809). Nature of the assay: primary screen, population patch clamp on CHO cells stably expressing hERG.
Chain of human ether-à-go-go-related gene (hERG) potassium channel (Q12809 whole entry, looked up): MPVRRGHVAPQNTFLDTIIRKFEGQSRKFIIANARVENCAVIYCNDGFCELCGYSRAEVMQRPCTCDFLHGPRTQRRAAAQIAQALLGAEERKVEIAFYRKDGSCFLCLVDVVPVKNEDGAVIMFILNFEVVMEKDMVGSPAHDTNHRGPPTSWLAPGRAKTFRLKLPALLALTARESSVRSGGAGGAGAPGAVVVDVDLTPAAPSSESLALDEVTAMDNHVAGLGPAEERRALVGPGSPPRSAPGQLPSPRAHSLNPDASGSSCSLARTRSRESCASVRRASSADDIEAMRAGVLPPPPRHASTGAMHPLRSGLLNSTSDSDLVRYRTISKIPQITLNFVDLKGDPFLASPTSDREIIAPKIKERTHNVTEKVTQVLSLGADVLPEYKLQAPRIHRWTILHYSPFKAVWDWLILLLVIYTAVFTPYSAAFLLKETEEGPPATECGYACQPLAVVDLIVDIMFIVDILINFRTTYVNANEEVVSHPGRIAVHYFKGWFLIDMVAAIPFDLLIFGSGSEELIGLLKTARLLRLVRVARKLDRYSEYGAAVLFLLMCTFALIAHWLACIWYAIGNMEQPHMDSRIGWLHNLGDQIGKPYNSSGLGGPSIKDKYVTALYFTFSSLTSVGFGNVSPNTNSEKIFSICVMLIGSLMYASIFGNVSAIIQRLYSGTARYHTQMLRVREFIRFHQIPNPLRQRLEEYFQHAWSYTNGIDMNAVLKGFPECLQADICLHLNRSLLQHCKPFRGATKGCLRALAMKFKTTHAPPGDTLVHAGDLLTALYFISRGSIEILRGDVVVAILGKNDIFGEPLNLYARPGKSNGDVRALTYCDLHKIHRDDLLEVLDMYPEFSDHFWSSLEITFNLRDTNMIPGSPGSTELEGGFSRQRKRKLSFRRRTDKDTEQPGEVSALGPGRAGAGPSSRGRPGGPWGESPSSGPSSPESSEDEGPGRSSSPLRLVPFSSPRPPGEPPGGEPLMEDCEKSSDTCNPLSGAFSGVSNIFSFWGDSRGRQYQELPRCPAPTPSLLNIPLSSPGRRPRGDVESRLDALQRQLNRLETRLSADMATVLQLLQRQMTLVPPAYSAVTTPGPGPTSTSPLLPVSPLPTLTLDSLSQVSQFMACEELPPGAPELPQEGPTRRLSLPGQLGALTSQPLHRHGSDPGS
On to `CCCN1C=CC(=CC=C(C#N)C#N)C=C1`, for which the “hERG current change (%, negative = inhibition) at 10uM” value was -3.42%. As for `Cc1ccccc1N(CC(=O)N/N=C/c1ccc(Cl)cc1)C(=O)c1ccccc1`, the “hERG current change (%, negative = inhibition) at 10uM” value is reported as 3.66%.

As to `Cc1sc(NC(=O)c2ccc(Br)s2)c(C(N)=O)c1C`, the “hERG current change (%, negative = inhibition) at 10uM” value was found to be 17.5%. On to `Cn1c(-c2ccccc2)n[nH]c1=S`, for which the “hERG current change (%, negative = inhibition) at 10uM” value is listed as -19.1%. As to `C=CCn1c(N)c(C(=O)Nc2ccc(C)c(C)c2)c2nc3ccccc3nc21`, the “hERG current change (%, negative = inhibition) at 10uM” value is given as 16.7%. For `CC(C)(C)c1ccc(/C=C2\Oc3cc(OC(=O)N4CCOCC4)ccc3C2=O)cc1` the value was 1.02%; for `CCN(CC(=O)Nc1c(F)cccc1F)C(=O)CCc1nc2cc(S(=O)(=O)N(C)C)ccc2n1CC`, 10.6%; for `O=C(NCCCN1CCOCC1)C(=O)NCCc1ccccc1`, 11.2%.

In the case of `N/C(=N\OC(=O)Cc1ccc(-c2ccccc2)cc1)c1ccncc1`, the “hERG current change (%, negative = inhibition) at 10uM” value was determined as 18%. Under `O=C1CCc2cc(S(=O)(=O)N3CCN(c4cccc(C(F)(F)F)c4)CC3)ccc2N1` stands -9.64%; under `CCc1c(C)c2c(C)[nH]nc2oc1=O`, 0.753%; under `COc1ccc(-c2cc3nc(C)c(CCC(=O)NCc4ccco4)c(C)n3n2)c(OC)c1`, -12.9%. For `Cc1cc(N2C(=O)C3CC=CCC3C2=O)cc(C)c1Br` (centres unmarked) the value was 14.7%; for `O=C(NCC(c1ccco1)N1CCc2ccccc21)c1ccc([N+](=O)[O-])cc1` (centres unmarked), -18.3%. For the compound `COc1ccc(Nc2nc3c([nH]2)c(=O)[nH]c(=O)n3C)cc1`, the “hERG current change (%, negative = inhibition) at 10uM” value is reported as 16.3%. `CC1=C(C)CC(C(=O)NCCc2ccccc2)C(C(=O)O)C1` (centres unmarked): the “hERG current change (%, negative = inhibition) at 10uM” value is listed as -10.8%. Under `CCN(CC)C(=O)CN(c1ccc2c(c1)OCO2)S(C)(=O)=O` stands -3.23%. In the case of `O=C(CCNC(=O)c1ccc(Cl)cc1)Nc1ccc(S(=O)(=O)N2CCOCC2)cc1`, the “hERG current change (%, negative = inhibition) at 10uM” value was -6.76%.

Turning to `COc1ccc(NC(=O)CC2C(=O)N(c3ccc(OC)cc3)C(=O)N2CCN2CCN(C)CC2)cc1` (centres unmarked), the “hERG current change (%, negative = inhibition) at 10uM” value was determined as 6.28%. For the compound `O=C(Nc1c2c(nn1-c1ccc(F)cc1)CS(=O)(=O)C2)C12CC3CC(CC(C3)C1)C2`, the “hERG current change (%, negative = inhibition) at 10uM” value was determined as 3.32%.

As to `CCOC(=O)C1=C(C)N(C)C(=S)NC1c1cc(OC)ccc1OC` (centres unmarked), the “hERG current change (%, negative = inhibition) at 10uM” value turned out to be 3.73%. On to `O=C(NCc1ccccc1Cl)C1CCN(S(=O)(=O)c2cccc3nonc23)CC1`, for which the “hERG current change (%, negative = inhibition) at 10uM” value is 16.4%. For `COc1ccc(/C=C/C(=O)NC(=S)N2CCN(c3ccccn3)CC2)cc1` the value was -6.85%. For `CC(C)CCNC(=O)Cn1c(=O)oc2cc(S(=O)(=O)N3CC(C)CC(C)C3)ccc21` (centres unmarked) the value was 13.3%; for `COc1cnc(SCC(=O)O)[nH]c1=O`, 24%; for `CCN(CCCNC(=O)CCCCn1c(=O)[nH]c2ccccc2c1=O)c1ccccc1`, -9.65%. For the compound `CCn1c(=O)c(-c2cc(=O)[nH][nH]2)c(O)c2ccccc21`, the “hERG current change (%, negative = inhibition) at 10uM” value is 3.65%. `CC1CCN(c2ccc(/C=N\Nc3nncn3N)cc2[N+](=O)[O-])CC1`: the “hERG current change (%, negative = inhibition) at 10uM” value was -5.89%. For the compound `COc1ccc(/C=C/C(=O)N2CCC(C(N)=O)CC2)cc1S(=O)(=O)N1CCOCC1`, the “hERG current change (%, negative = inhibition) at 10uM” value came out at 24.7%. For `O=C(Nc1ccc(Cl)cc1)c1cc2nc(-c3ccco3)cc(C(F)(F)F)n2n1` the value was -6.86%; for `Cn1c([O-])c(Cc2cccc(Cl)c2Cl)c(=O)n(C)c1=O.[NH4+]`, 21.7%; for `Nc1ccc(C(=O)N2CCN(S(=O)(=O)c3ccc(Br)cc3)CC2)cc1[N+](=O)[O-]`, -26.9%. With `O=[N+]([O-])c1ccc(Nc2nccc(Cl)n2)cc1`, the “hERG current change (%, negative = inhibition) at 10uM” value amounted to 6.81%. For `CCCCS(=O)(=O)N1CCCC(C(=O)Oc2ccc(Cl)cc2)C1` (centres unmarked) the value was 18.7%. Consider `CCN(CC)c1ccc(S(=O)(=O)N2CCOCC2)cc1NC(=O)COC(=O)c1cccnc1SC`, for which the “hERG current change (%, negative = inhibition) at 10uM” value is -6.96%.

`CCOC(=O)N1CCN(C(=S)Nc2ccccc2C)CC1`: the “hERG current change (%, negative = inhibition) at 10uM” value was -7.75%.

`CCOC(=O)C1CCCN(C(=O)c2ccc3[nH]c4c(c3c2)CC(C)CC4)C1` (centres unmarked): the “hERG current change (%, negative = inhibition) at 10uM” value was -9%.

For `O=CN1CCN(C(=O)c2ccc([N+](=O)[O-])cc2)CC1`, the “hERG current change (%, negative = inhibition) at 10uM” value is on record as -22.3%.

Turning to `CCC(C)NCCCCOc1ccc(Cl)cc1C.O=C(O)C(=O)O` (centres unmarked), the “hERG current change (%, negative = inhibition) at 10uM” value is -58.6%. Regarding `CCN(CC)S(=O)(=O)c1ccc(N(C)C)c(NC(=O)CSCc2c(C)noc2C)c1`, the “hERG current change (%, negative = inhibition) at 10uM” value is listed as -60.4%. For `COc1ccc(NC(=S)Nc2ccc3nc(C)c(C)nc3c2)cc1` the value was -9.78%; for `Cc1ccc(/C=N/N2CCN(Cc3cccc4ccccc34)CC2)o1`, -15.2%; for `NS(=O)(=O)c1ccc2nc(NC(=O)C3=COCCO3)sc2c1`, 19.3%. Regarding `CN(CCO)c1ccc(-c2nn(C)c(=O)c3ccccc23)cc1[N+](=O)[O-]`, the “hERG current change (%, negative = inhibition) at 10uM” value was 2.14%. For `CCOC(=O)C1=CC[C@@H](c2ccccc2Cl)N(S(=O)(=O)c2ccc(C)cc2)[C@H]1C(=O)OCC`, the “hERG current change (%, negative = inhibition) at 10uM” value is on record as -18%. Consider `CSCCC(NC(=O)c1ccccc1)C(=O)Nc1ccncc1` (centres unmarked), for which the “hERG current change (%, negative = inhibition) at 10uM” value is given as -14.4%. Take `CC(C1CC1)N(C(=O)NC1CCS(=O)(=O)C1)c1ccccc1` (centres unmarked): the “hERG current change (%, negative = inhibition) at 10uM” value is on record as -4.02%. On to `CCOC(=O)c1ccc(NC(=O)NCCc2cnc[nH]2)cc1`, for which the “hERG current change (%, negative = inhibition) at 10uM” value was determined as 4.44%.

For `Cc1ccc(S(=O)(=O)N(CC(=O)N2CCOCC2)CC(=O)N2CCOCC2)cc1`, the “hERG current change (%, negative = inhibition) at 10uM” value was 5.6%. Under `CCN(CCO)c1ccc(NC(=S)Nc2cccc(S(=O)(=O)N(C)C)c2)cc1` stands -1.01%; under `Cn1cnnc1SCC(=O)NC1CCCCC1`, 1.66%. Under `COC(=O)C1=COC(OC2OC(CO)C(O)C(O)C2O)C2C1C=CC2(O)CO` (centres unmarked) stands 2.46%; under `CC(=O)N/N=C(\N)c1nonc1N`, 16.3%.

With `CC1(C)CC(=O)C=C(Nc2cccc(Cl)c2Cl)C1`, the “hERG current change (%, negative = inhibition) at 10uM” value is given as -30.1%.

Consider `COc1ccccc1N1CCN(C(=O)c2c(-c3ccccc3Cl)noc2C)CC1`, for which the “hERG current change (%, negative = inhibition) at 10uM” value is listed as -51.2%. Regarding `Cc1cccc(N=C2NC(=O)/C(=C/c3cccnc3)S2)c1`, the “hERG current change (%, negative = inhibition) at 10uM” value came out at 5.71%.
